Source: the supplement of paper PMC11417369
Some of the results follow.

What follows are sequences tested on PfAP2-HC AP2 domain (GST-tagged) (assay: gcPBM binding intensity (ln(normalized median fluorescence intensity)); higher = stronger DNA binding).
Outline: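 Plasmodium falciparum DNA-binding domains carrying a GST tag were expressed in E. coli and applied for 1 h, at about 25 μg on average, to an Agilent 4 × 180k array. The array held primer-extended double-stranded 36-bp intergenic genomic probes together with negative controls, and binding took place in 1× PBS with 1% milk, 0.2 mg/ml BSA, 0.5% salmon testes DNA and 0.03% Triton X-100. An Alexa488 anti-GST antibody detected bound protein, and the array was scanned at 488 nm. Binding intensity is taken as the highest Masliner-normalised natural-log median intensity across replicate spots of either probe orientation.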

Sequence | gcPBM binding intensity (ln)
TGGAGGTCAGTTCACAGTACCCAGAAACTCTACGAG [XGTACX_site2007] | 9.26
TGAAATAACCCATGTGCATGCACTTCAATAACTGAA [TGCATGCA_site1041] | 9.6
TATAAATTAAAATCAGTGCATATTTTGAAAAACCTC | 9.66
ATATTATTATTAGTTTCACACATTTAATGAAACTAA [CACACA_site5677] | 9.43
TATAAATTATAAATTGCACACATATTTTTATATTTA [CACACA_site8974] | 9.72
TTACATGTAAAAGGTACACACATTAGATATACAAAT [CACACA_site6651] | 9.96
AATACTCAAAAGAATCGTACAAACAACACTCCCACG [XGTACX_site7564] | 10.4
TATCATACCTTTTAATGTACACACATTTCTTTTTTG [XGTACX_site1655] | 10.1
TATAACTTTTTTAATACACACAAATATTTATTTATA [CACACA_site7425] | 9.61
TTTTACGTGAGTAATACACACATATAAGTTTATATA [CACACA_site4120] | 9.58
TATACAGATAAATACACACACATATATATATATATA [CACACA_site4178] | 9.86
ATATATATATGTGTGTGTACATATGATTTCGCACTT [XGTACX_site4449] | 10.3
GTTATAATTTAGTCAAGTACATGCGTATGTATATTC [XGTACX_site3763] | 9.78
CACAGAAATATTCTTATACACACTGTTCTTATATTC [CACACA_site288] | 9.82
TAATATATATTATATACACACATATATATATATATA [CACACA_site428] | 9.74
TACCACTTTCGAAGTAGTACATGGCTTTTTTTTTTT [XGTACX_site8379] | 9.61
TGTATGTTAAATACAACACACAAAAAAAAACAAGTT [CACACA_site4324] | 9.9
TATATATATATATGTACACACACACCGATAAATAAA [CACACA_site8041] | 10.2
AAAGAAAGAAAACACACACACATATATATATATCAA [CACACA_site3743] | 10.9
TTTTTGTCTGCATACGCACACACGTGGACCATCTTA [CACACA_site8303] | 10.5
ATTTCCCATACACGTTGTACAATGTAGAGAAAGTAT [XGTACX_site4586] | 9.53
GATATGTGTATAATATGTACATATATATATATATAT [XGTACX_site6531] | 9.96

Sequence | gcPBM binding intensity (ln)
CTATTTAAAATATGAACACACATTATTTGTTTTAGA [CACACA_site2713] | 9.56
ATATCATTATATAGTTGTACATATTTATTTATTTAT [XGTACX_site8995] | 9.88
AAAAAAAAAAATACTAGTACGTAAAATTATATAAAT [XGTACX_site3019] | 9.85
AATATAGGAATATGCACACATATATACCTACATACA [CACACA_site4939] | 9.95
TAATACTTATATAAAGGTACACAATTTAACCGAATG [XGTACX_site7173] | 9.63
GTAAATATTCATATATGTACTTATGATATTTGCTAA [XGTACX_site6828] | 9.57
ACATATATATATATATATTGATTTATTTATTTCCCT [CACACA_negctrl_site659] | 9.62
ATATATATATATAAATGTACAAAAATATATATGTAA [XGTACX_site4531] | 9.92
CTTCCTTAGGAATGTACACACATATAAAATATGTTG [CACACA_site6355] | 9.71
AAGAAAGAGTTCTGTTGTACAAAATATTAATATGTA [XGTACX_site7213] | 9.78
TTTTGGTTAATTCCCCCCATTACATTATGTCATGTC [CACACA_negctrl_site229] | 9.87
TTTCATTTTTTTACATGTACGCAAAAGTGTGTAGTT [XGTACX_site6582] | 9.78
AACAAAATAAAAAGTAATCTTATTTATTAAAATTTT [CACACA_negctrl_site419] | 9.48
TTTATTAAGAAACACACACACACACCCAAAATAAAA [CACACA_site242] | 10.5
CTTTATTATAAGATTACACACATGTGTTCTAATTTA [CACACA_site7479] | 10.1
TAATTAACTTTATATGCATGTTAAAAATGTTATAAG [TGCATGCA_site761] | 9.48
TATAAACAAAACAAAACATGCATAATACTATAAATT [TGCATGCA_site333] | 9.81
TATACGCAGAAACACACACACAAAAAAAAAAAAAAA [CACACA_site427] | 10.5
TATAATAAATCGAACTGTACATATATATATATATAT [XGTACX_site7097] | 9.57
ATTCGGATCTATAAGTGTACACAATCTAGCGAAAAG [XGTACX_site3088] | 9.61
TTTATTCAAATATAATGTACTTTCTACAAATTCAAT [XGTACX_site8119] | 9.43
CATATATAAATATATACACACATATATATATATATA [CACACA_site1365] | 9.66

Sequence | gcPBM binding intensity (ln)
ATTTTTTTTGCTAAGTGTACACAAATGTTTATTAAT [XGTACX_site7440] | 9.9
GCTAATAATAAAAGCATAATGAACAAACACCCAGTA [CACACA_negctrl_site806] | 10.4
TTATATAACACGGGGAGGACACAAGAAATAAAGAGC [XGTACX_site2148] | 9.89
TTTTTCTGTTTTTATAGCCTTCTCATAATACATAAA [TGCATGCA_negctrl_site355] | 9.42
CAGATAAGATTTTGTGGTACTATTTATTAAATTAGA [XGTACX_site2644] | 9.51
ATATTTTCCCTTTATAGGAGCACAAAAATTAAATGT [CACACA_negctrl_site1114] | 9.32
ATTCACAAATATATGGTGCATAATATATATATATAT [GTGCAC_site9674] | 9.63
AACAATTATTGTAATGCATGCACTGAATATAGAAAG [TGCATGCA_site889] | 9.86
AGCGTATAACATATGACACACACACCGACATACACA [CACACA_site8532] | 10.3
ATATATATATGGAAGTGTACTTATATAGCATACTAG [XGTACX_site5130] | 9.77
TACGTATCATAATTTTATTTTATATATATTCACAAA [XGTACX_negctrl_site144] | 9.43
AAATTTTTATAATTATCACACATTGAATTGTGGTCT [CACACA_site4343] | 9.72
AATATGTAAATATGGGTGCTTTAAAATATATTCATT [GTGCAC_site9583] | 9.64
TTCCAATGATAAAATTGTACTTGAAGAAAATTTTTT [XGTACX_site4607] | 9.37
GACATAGTCATATACTGTACTTTATATTATTGTGTA [XGTACX_site6636] | 9.66
TTTTTTTTCATTGGTTGTACAATATTTATAATTCAC [XGTACX_site7036] | 9.71
TTTTTTTTTTTTTTTTGTACTTATAAAAAATTTTTT [XGTACX_site1249] | 8.97
TACAGATATAAACACACACACATATATATATATATA [CACACA_site4846] | 10.2
AATCCCCACTTGTCAAGTACATATATCATGGATGAA [XGTACX_site3486] | 9.5
TATTTATAACAAAGGTTAAATTAAAACTAATCCACA [TGCATGCA_negctrl_site3] | 9.5
GCCAAAATCTAATTTACACACTTATTAAATAATTAC [CACACA_site6251] | 9.72
TATATTAAAAAAGAGGTGCATTCGTAAGAGGTTAAA [GTGCAC_site9720] | 9.74

Sequence | gcPBM binding intensity (ln)
TCATATTGGCTGTTCTGTACTTATAAGTTTTAAAGA [XGTACX_site5593] | 9.62
ATGTAATATTTACAACGTACAAATTATAAACATATT [XGTACX_site603] | 9.8
TTTGTTAATATAAAAACACACAAAAATAACATAAAA [CACACA_site2619] | 9.85
AAAAAATTCATATATACACACACGCACATATATATA [CACACA_site4226] | 10.2
TATTATATATATGTTGACATATTTGTACACTCCACT [TGCATGCA_negctrl_site200] | 9.83
AAAATATTTCATATATGTACTTAAAAAAAAAAAAAA [XGTACX_site5399] | 9.34
GAATATATAAGATACACACACAAATTAAATATAAAA [CACACA_site2781] | 10.6
CACTTTTCTGGAAAAATTCCCACATTTTTTTATTAA [GTGCAC_negctrl_site322] | 9.5
AAAAAAAAAAAAAACACACACACACGCATAAATATA [CACACA_site6217] | 11.5
GTACAAAAAAAAATAAAATACATATATATATATATA [GTGCAC_negctrl_site364] | 9.47
TCATAAAAACTAATACGTACTTAAAAATATGAACTT [XGTACX_site2939] | 9.61
AAAAAAAAGTTGTATTGTACAAAAAAAAAAAAAAAA [XGTACX_site8334] | 9.24
GATAAAGTACTTTATACACACAAATATTTATTTATA [CACACA_site7795] | 9.8
TCTTCATATAAGAACACATGCAGATTTTTATTATTG [TGCATGCA_site682] | 9.67
TTATGTAAAAAAAAAAAAAAAAAAAAAAAAAAAAAA [CACACA_negctrl_site984] | 9.05
CATATAATATAATTATGTACATATATAATAATATAC [XGTACX_site5278] | 9.71
AAAAAAAAAAAAAAACGTACACATATTATGTTATTT [XGTACX_site5264] | 9.75
AAAAAAAAAAAAGAACGTACAAATTAATTTATAGAA [XGTACX_site5584] | 9.68
TATTTACAAAAAAAATATAAAAAATATAAAATATAT [CACACA_negctrl_site575] | 9.26
TGTATAATATTTGGTGCACACAAATTAACAACTGTT [CACACA_site9245] | 10.1
AATATTAAAATAAAAAGTACTTATTTATGTATGTTG [XGTACX_site2682] | 9.69
TTTATATAACAACAAAATGGAAATATATATGTATGT [TGCATGCA_negctrl_site98] | 9.65
